In one experiment the test system is HSkMC. In words: cytotoxicity call (relative viability < 0.9). The conditions noted are these: 10 µM.
The next experiment has as its system HepG2. In words: cytotoxicity call (relative viability < 0.9). The conditions noted are these: 10 µM.
A further experiment relates to S. aureus RN4220. In words: growth inhibition call (relative growth <= 0.2). The settings on record: 50 µM.

Some of the results follow.

For `Cc1noc(C)c1S(=O)(=O)N(C)C[C@@H]1OCCCC[C@H](C)Oc2ccc(N(C)C)cc2C(=O)N([C@@H](C)CO)C[C@H]1C`, the cytotoxicity call in the experiment on HSkMC and with HepG2 was “inactive” each time. Also, the growth inhibition call with S. aureus RN4220 was “inactive”.

Turning to `C=CC[C@@H](CC(=O)N(CCO)Cc1ccccc1)C(=O)N[C@H](COC(=O)[C@H](CC=C)NC(=O)OCC1c2ccccc2-c2ccccc21)C(C)(C)C`, the cytotoxicity call in the experiment on HSkMC and in the experiment on HepG2 was “inactive” in each case. Moreover, in the experiment with S. aureus RN4220, the growth inhibition call is “inactive”.

Regarding `C[C@@H]1CN([C@H](C)CO)C(=O)c2cc(NC(=O)CCC(F)(F)F)ccc2O[C@@H](C)CCCCO[C@H]1CN(C)S(=O)(=O)c1ccccc1`, the cytotoxicity call in the experiment with HSkMC and with HepG2 was “inactive” in each case. Also, in the experiment on S. aureus RN4220, the growth inhibition call is “inactive”.

As to `C[C@H](CO)N1C[C@H](C)[C@@H](CN(C)S(=O)(=O)c2cccs2)Oc2c(NC(=O)Cn3cnnn3)cccc2C1=O`, the cytotoxicity call in the experiment with HSkMC and in the experiment on HepG2 was “inactive” throughout. The growth inhibition call in the experiment with S. aureus RN4220 is “inactive”.

Take `C[C@@H]1CN([C@H](C)CO)C(=O)Cc2cc(NC(=O)CCN3CCOCC3)ccc2O[C@@H]1CN(C)S(C)(=O)=O`: the cytotoxicity call in the experiment with HSkMC and in the experiment with HepG2 was “inactive” throughout. In the experiment on S. aureus RN4220, the growth inhibition call was “inactive”.

Regarding `C[C@H](CO)N1C[C@H](C)[C@H](CN(C)S(=O)(=O)c2cn(C)cn2)Oc2c(NS(C)(=O)=O)cccc2C1=O`, the cytotoxicity call in the experiment on HSkMC and in the experiment with HepG2 was “inactive” in each case. Besides, the growth inhibition call with S. aureus RN4220 is “inactive”.

Turning to `CN(C)CCCNC(=O)C[C@H]1CC[C@@H]2[C@H](COc3ccc(NC(=O)NC4CCCC4)cc3C(=O)N2C)O1`, the cytotoxicity call in the experiment on HSkMC and in the experiment on HepG2 was “inactive” throughout. Further, in the experiment on S. aureus RN4220, the growth inhibition call was “inactive”.

On to `C[C@H](CO)N1C[C@H](C)[C@H](CN(C)S(=O)(=O)c2ccc(F)cc2)Oc2ccc(NC(=O)CCN3CCOCC3)cc2C1=O`, for which the cytotoxicity call in the experiment with HSkMC and with HepG2 was “inactive” in each case. Besides, in the experiment on S. aureus RN4220, the growth inhibition call was “inactive”.

Turning to `CCn1c(CN2CCN(C(=O)c3ccco3)CC2)nc2c1c(=O)n(C)c(=O)n2C`, the cytotoxicity call in the experiment on HSkMC and in the experiment with HepG2 was “inactive” in each case. Moreover, the growth inhibition call in the experiment with S. aureus RN4220 was “inactive”.

Turning to `C[C@H](CO)N1C[C@H](C)[C@H](CN(C)S(=O)(=O)c2ccc(F)cc2)Oc2ccc(NC(=O)Cc3ccccc3)cc2CC1=O`, the cytotoxicity call in the experiment on HSkMC and in the experiment on HepG2 was “inactive” throughout. The growth inhibition call in the experiment with S. aureus RN4220 was “inactive”.

In the case of `CN(C)CC#Cc1ccc([C@@H]2[C@@H](CO)N3CCCCN(C(=O)CN(C)C)C[C@@H]23)cc1`, the cytotoxicity call in the experiment with HSkMC and in the experiment on HepG2 was “inactive” in each case. Further, the growth inhibition call in the experiment on S. aureus RN4220 was “inactive”.

In the case of `Cc1noc(C)c1S(=O)(=O)Nc1ccc2c(c1)C(=O)N([C@H](C)CO)C[C@H](C)[C@H](CN(C)Cc1ccc(Oc3ccccc3)cc1)O2`, the cytotoxicity call with HSkMC and in the experiment on HepG2 was “inactive” throughout. Besides, the growth inhibition call with S. aureus RN4220 was “inactive”.

Turning to `C[C@H]1CN([C@@H](C)CO)S(=O)(=O)c2ccc(C#CCN(C)C)cc2O[C@@H]1CN(C)C(=O)c1ccccc1F`, the cytotoxicity call in the experiment on HSkMC and in the experiment with HepG2 was “inactive” in each case. Further, in the experiment on S. aureus RN4220, the growth inhibition call was “inactive”.

As for `C[C@@H]1CN([C@H](C)CO)C(=O)c2cc(NS(=O)(=O)c3ccccc3)ccc2O[C@@H](C)CCCCO[C@@H]1CN(C)S(=O)(=O)c1cn(C)cn1`, the cytotoxicity call in the experiment on HSkMC and in the experiment on HepG2 was “inactive” in each case. Further, the growth inhibition call in the experiment on S. aureus RN4220 was “inactive”.

As for `O=C(N[C@@H](c1cccnc1)c1ccc2c(c1)OCO2)C1CCN(CCOc2ccc(Cl)cc2Cl)CC1`, the cytotoxicity call in the experiment on HSkMC and with HepG2 was “inactive” in each case. Besides, in the experiment on S. aureus RN4220, the growth inhibition call was “active”.

For `C[C@@H]1CCCCO[C@H](CN(C)Cc2ccc(C(=O)O)cc2)[C@H](C)CN([C@@H](C)CO)C(=O)c2cc(NC(=O)CCC(F)(F)F)ccc2O1`, the cytotoxicity call with HSkMC and in the experiment on HepG2 was “inactive” each time. Moreover, in the experiment on S. aureus RN4220, the growth inhibition call was “inactive”.

Turning to `C[C@@H]1CN([C@@H](C)CO)C(=O)c2cc(NS(=O)(=O)c3ccccc3)ccc2O[C@@H](C)CCCCO[C@@H]1CN(C)Cc1ccc2c(c1)OCO2`, the cytotoxicity call in the experiment on HSkMC and in the experiment with HepG2 was “inactive” throughout. The growth inhibition call in the experiment with S. aureus RN4220 was “inactive”.

Consider `C[C@@H]1CCCCO[C@@H](CN(C)C(=O)Nc2ccc3c(c2)OCO3)[C@H](C)CN([C@H](C)CO)C(=O)c2cc(NC(=O)CCC(F)(F)F)ccc2O1`, for which the cytotoxicity call in the experiment with HSkMC and with HepG2 was “inactive” throughout. Moreover, the growth inhibition call with S. aureus RN4220 was “inactive”.

On to `C[C@H](CO)N1C[C@H](C)[C@H](CN(C)C(=O)NC2CCCCC2)OCCCC[C@H](C)Oc2ccc(NC(=O)CCC(F)(F)F)cc2C1=O`, for which the cytotoxicity call with HSkMC and with HepG2 was “inactive” in each case. In the experiment with S. aureus RN4220, the growth inhibition call is “inactive”.

Consider `COc1ccc(NC(=O)Nc2ccc3c(c2)CC(=O)N([C@H](C)CO)C[C@H](C)[C@H](CN(C)Cc2ccc(C(F)(F)F)cc2)O3)cc1`, for which the cytotoxicity call with HSkMC is “inactive”. Moreover, the cytotoxicity call with HepG2 is “active”. In addition, in the experiment on S. aureus RN4220, the growth inhibition call was “inactive”.

In the case of `COc1ccc(S(=O)(=O)N2C[C@H](O)COC[C@H]3O[C@H](CC(=O)N[C@H]4CCN(Cc5ccccc5)C4)CC[C@@H]32)cc1`, the cytotoxicity call with HSkMC and in the experiment with HepG2 was “inactive” in each case. In the experiment with S. aureus RN4220, the growth inhibition call is “inactive”.

`Cc1nn(C)cc1NC(=O)C[C@@H]1CC[C@@H]2[C@H](COc3ccc(NC(=O)C4CCOCC4)cc3C(=O)N2C)O1`: the cytotoxicity call with HSkMC and in the experiment on HepG2 was “inactive” each time. Moreover, in the experiment with S. aureus RN4220, the growth inhibition call is “inactive”.

`OCC1OC(Oc2cc(O)cc(C=Cc3ccc(O)cc3)c2)C(O)C(O)C1O` (configuration not stated): the cytotoxicity call in the experiment on HSkMC and in the experiment with HepG2 was “inactive” in each case. For the same compound, the growth inhibition call in the experiment on S. aureus RN4220 is “inactive”.

As for `c1ccc(Nc2nc3c(ccc4ccccc43)s2)cc1`, the cytotoxicity call with HSkMC is “inactive”. The cytotoxicity call in the experiment with HepG2 is “active”. Besides, the growth inhibition call with S. aureus RN4220 is “inactive”.

As to `C[C@H](CO)N1C[C@H](C)[C@H](CN(C)C(=O)Nc2ccc(C(F)(F)F)cc2)Oc2ccc(NS(C)(=O)=O)cc2CC1=O`, the cytotoxicity call with HSkMC and with HepG2 was “inactive” in each case. For the same compound, the growth inhibition call in the experiment with S. aureus RN4220 is “inactive”.

In the case of `C[C@@H]1CN([C@H](C)CO)C(=O)CCCn2cc(nn2)CO[C@H]1CN(C)S(=O)(=O)c1ccccc1C#N`, the cytotoxicity call with HSkMC and with HepG2 was “inactive” throughout. The growth inhibition call with S. aureus RN4220 is “inactive”.

In the case of `CN1CCN(C2=Nc3ccccc3Oc3ccc(Cl)cc32)CC1.O=C(O)CCC(=O)O`, the cytotoxicity call in the experiment with HSkMC and in the experiment with HepG2 was “inactive” in each case. The growth inhibition call with S. aureus RN4220 is “inactive”.

On to `Cc1noc(C)c1NC(=O)Nc1ccc2c(c1)C(=O)N([C@@H](C)CO)C[C@@H](C)[C@H](CN(C)S(=O)(=O)c1ccc(F)cc1)OCCCC[C@H](C)O2`, for which the cytotoxicity call in the experiment with HSkMC and in the experiment on HepG2 was “inactive” each time. Further, the growth inhibition call with S. aureus RN4220 was “inactive”.

For `CCCCOc1cc(C(=O)OCCN(CC)CC)ccc1N.Cl`, the cytotoxicity call with HSkMC and with HepG2 was “inactive” throughout. In addition, the growth inhibition call with S. aureus RN4220 is “inactive”.

For the compound `Cc1noc(C)c1NC(=O)Nc1cccc2c1O[C@H](CN(C)C(=O)NC(C)C)[C@@H](C)CN([C@H](C)CO)C2=O`, the cytotoxicity call in the experiment on HSkMC and with HepG2 was “inactive” each time. The growth inhibition call in the experiment with S. aureus RN4220 was “inactive”.

For `C[C@@H]1CCCCO[C@@H](CN(C)C(=O)Nc2ccc3c(c2)OCO3)[C@@H](C)CN([C@@H](C)CO)C(=O)c2cc(NS(=O)(=O)c3ccccc3)ccc2O1`, the cytotoxicity call in the experiment with HSkMC and with HepG2 was “inactive” in each case. For the same compound, the growth inhibition call in the experiment on S. aureus RN4220 was “inactive”.

Consider `CO[C@H]1CN(C)C(=O)c2ccc(NS(C)(=O)=O)cc2OC[C@H](C)N(C(=O)CN(C)C)C[C@H]1C`, for which the cytotoxicity call in the experiment with HSkMC and in the experiment on HepG2 was “inactive” each time. Besides, the growth inhibition call with S. aureus RN4220 was “inactive”.

As for `Cn1sccc1=O`, the cytotoxicity call in the experiment on HSkMC and in the experiment on HepG2 was “inactive” each time. Moreover, the growth inhibition call with S. aureus RN4220 is “inactive”.

With `COc1cccc(S(=O)(=O)Nc2ccc3c(c2)[C@H]2C[C@@H](CC(=O)NCC(F)(F)F)O[C@@H](CO)[C@H]2O3)c1`, the cytotoxicity call in the experiment on HSkMC and in the experiment with HepG2 was “inactive” throughout. The growth inhibition call in the experiment with S. aureus RN4220 is “inactive”.

Consider `COc1ccc([Si](C)(C)[C@@H]2[C@@H](CCn3cc(CCOC(=O)NCCCCCC(=O)NO)nn3)O[C@]3(C(=O)N(Cc4ccc(I)cc4)c4ccccc43)[C@H]2C)cc1`, for which the cytotoxicity call in the experiment with HSkMC and in the experiment with HepG2 was “inactive” each time. The growth inhibition call in the experiment with S. aureus RN4220 was “inactive”.

On to `COc1ccc(S(=O)(=O)N(C)C[C@H]2Oc3ccc(NC(=O)NC(C)C)cc3CC(=O)N([C@H](C)CO)C[C@H]2C)cc1`, for which the cytotoxicity call in the experiment with HSkMC and in the experiment with HepG2 was “inactive” throughout. Further, the growth inhibition call with S. aureus RN4220 is “inactive”.

Regarding `C[C@H](CO)N1C[C@H](C)[C@H](CN(C)S(=O)(=O)c2cn(C)cn2)Oc2ccc(NS(=O)(=O)c3ccccc3)cc2CC1=O`, the cytotoxicity call in the experiment on HSkMC (human skeletal muscle cells) and with HepG2 was “inactive” each time. Further, in the experiment with S. aureus RN4220, the growth inhibition call was “inactive”.

As for `COc1ccc(S(=O)(=O)Nc2ccc3c(c2)C(=O)N([C@@H](C)CO)C[C@@H](C)[C@H](CN(C)C(=O)Nc2ccc(F)cc2)OCCCC[C@@H](C)O3)cc1`, the cytotoxicity call with HSkMC and in the experiment on HepG2 was “inactive” throughout. Besides, the growth inhibition call in the experiment on S. aureus RN4220 was “inactive”.

`COc1cc(C(=O)NC2CCN(C)CC2)ccc1Nc1ncc2c(n1)N(C1CCC(O)CC1)CCC(=O)N2C` (configuration not stated): the cytotoxicity call with HSkMC and with HepG2 was “inactive” in each case. Besides, the growth inhibition call in the experiment with S. aureus RN4220 is “inactive”.

The record behind these values is the antibiotic and cytotoxicity screens of Wong et al. (2023).
